Laboratory results taken from the supplement of paper PMC9446081.
Screen size: about 39,000 compounds; about 220 (0.56%) showed activity. The list shows a part of the results.

tested on: Escherichia coli K-12 BW25113; experiment: relative growth (OD600 normalised to plate interquartile mean) (fraction); higher = less growth inhibition, active = 0.2 or less; settings: 50 µM; LB; incubation time: overnight (16-24 h)
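Further: static incubation at 37 °C against the wild-type strain, values averaged over two biological replicates.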

| SMILES | relative growth |
| --- | --- |
| C[C@@H]1CN([C@H](C)CO)S(=O)(=O)c2ccc(C#CC3(O)CCCC3)cc2O[C@H]1CN(C)C(=O)c1ccccc1 | inactive: 0.997 |
| COc1cccc(S(=O)(=O)N(C)C[C@H]2OCc3cnnn3CCCC(=O)N([C@H](C)CO)C[C@@H]2C)c1 | inactive: 0.961 |
| CN(C)Cc1cn(CC[C@H]2CC[C@@H](NC(=O)Cc3cccnc3)[C@H](CO)O2)nn1 | inactive: 1 |
| CC(C)CC#Cc1ccc2c(c1)O[C@@H](CN(C)C(=O)c1cnccn1)[C@H](C)CN([C@@H](C)CO)S2(=O)=O | inactive: 0.997 |
| C[C@@H]1CCCCO[C@H](CN(C)S(C)(=O)=O)[C@H](C)CN([C@@H](C)CO)C(=O)c2cc(NS(=O)(=O)c3ccccc3)ccc2O1 | inactive: 1 |
| CC(=O)Nc1cc2c(cc1N)OCCO2 | inactive: 0.968 |
| CC(C)NC(=O)Nc1ccc2c(c1)C(=O)N([C@@H](C)CO)C[C@@H](C)[C@@H](CN(C)C(=O)Nc1cccc3ccccc13)OCCCC[C@@H](C)O2 | inactive: 0.992 |
| C[C@H]1CN([C@@H](C)CO)C(=O)Cc2cc(NS(=O)(=O)c3cccs3)ccc2O[C@H]1CN(C)S(=O)(=O)c1ccccc1 | inactive: 1.01 |
| COc1ccc(CN(C)C[C@@H]2OCCCC[C@H](C)Oc3ccc(NS(=O)(=O)c4ccc(F)cc4)cc3C(=O)N([C@@H](C)CO)C[C@H]2C)cc1 | inactive: 1.02 |
| C[C@@H]1CN([C@H](C)CO)C(=O)Cc2cc(NC(=O)Cn3cnnn3)ccc2O[C@@H]1CN(C)CC1CCCCC1 | inactive: 0.962 |
| CC(C)CCC(=O)N1C[C@@H]2c3nc(N4CCOCC4)ncc3CS(=O)(=O)[C@H]2C1 | inactive: 0.974 |
| CCCSc1ccc2nc(NC(=O)OC)[nH]c2c1 | inactive: 1.06 |
| CO[C@H]1CN(C)C(=O)c2ccc(NS(C)(=O)=O)cc2OC[C@H](C)N(C(=O)CN(C)C)C[C@@H]1C | inactive: 0.988 |
| COc1ccc(S(=O)(=O)N(C)C[C@H]2OCCCC[C@H](C)Oc3ccc(NC(=O)Nc4cccc5ccccc45)cc3C(=O)N([C@@H](C)CO)C[C@@H]2C)cc1 | inactive: 1.05 |
| CN(C)CC#Cc1ccc([C@H]2[C@@H](CO)N3C(=O)CN(C(=O)CN(C)C)C[C@H]23)cc1 | inactive: 0.99 |
| C[C@H](CO)N1C[C@H](C)[C@@H](CN(C)S(=O)(=O)c2cccs2)Oc2ccc(NC(=O)Cc3ccccc3)cc2CC1=O | inactive: 0.957 |
| COc1ccc(NC(=O)Nc2ccc3c(c2)C(=O)N([C@H](C)CO)C[C@H](C)[C@H](CN(C)Cc2ccc(-c4ccccc4)cc2)O3)cc1 | inactive: 1 |
| CC(=O)NC1=NC(=O)CS1 | inactive: 0.99 |
| COc1ncc(-c2nc(N3CCOCC3)nc3c(CN4CCC(C(C)(C)O)CC4)cc(F)cc23)cc1NS(C)(=O)=O | inactive: 1.01 |

| SMILES | relative growth |
| --- | --- |
| C[C@@H]1CN([C@H](C)CO)C(=O)c2cc(NC(=O)Nc3cccc4ccccc34)ccc2O[C@@H](C)CCCCO[C@H]1CN(C)S(=O)(=O)c1ccc(F)cc1 | inactive: 1.05 |
| C[C@H](CO)N1C[C@H](C)[C@H](CN(C)S(=O)(=O)c2ccccc2F)Oc2ncc(C#Cc3ccccc3F)cc2C1=O | inactive: 0.997 |
| CN(C)CCCNC(=O)C[C@H]1CC[C@@H]2[C@H](COc3ccc(NC(=O)c4ccccc4F)cc3C(=O)N2C)O1 | inactive: 1 |
| COCc1n[nH]c(C)c1C(=O)O | inactive: 0.982 |
| C[C@H](CO)N1C[C@H](C)[C@H](CN(C)S(=O)(=O)c2ccc(Cl)cc2)Oc2ccc(NC(=O)CCCN(C)C)cc2CC1=O | inactive: 1.02 |
| Cc1ccc(S(=O)(=O)N(C)C[C@@H]2OCCCC[C@H](C)Oc3ccc(NC(=O)Cc4ccccc4)cc3C(=O)N([C@@H](C)CO)C[C@H]2C)cc1 | inactive: 1.03 |
| Cc1noc(C)c1NC(=O)N(C)C[C@@H]1OCCCC[C@H](C)Oc2ccc(NC(=O)Nc3ccc(C(F)(F)F)cc3)cc2C(=O)N([C@H](C)CO)C[C@@H]1C | inactive: 1.03 |
| C=CCC[C@@H](Cc1ccc(F)cc1)C(=O)O[C@H](CNC(=O)[C@@H](CC=C)CC(=O)N[C@@H](CO)Cc1ccccc1)c1ccccc1 | inactive: 1.04 |
| COc1cccc(S(=O)(=O)N(C)C[C@@H]2Oc3ncc(C#Cc4ccccc4)cc3C(=O)N([C@H](C)CO)C[C@@H]2C)c1 | inactive: 1.04 |
| C[C@@H]1CN([C@H](C)CO)C(=O)Cc2cc(NC(=O)CCCN(C)C)ccc2O[C@H]1CN(C)C(=O)Nc1ccc2c(c1)OCO2 | inactive: 1.01 |
| C[C@H](O)C#Cc1ccc2c(c1)O[C@H](CN(C)C(=O)c1ccncc1)[C@H](C)CN([C@H](C)CO)S2(=O)=O | inactive: 0.987 |
| COc1ccc2c3c(n(c2c1)C)[C@@H](CO)N(Cc1cc(cc(c1)OC)OC)C[C@]13CCN(CC1)S(=O)(=O)c1cn(cn1)C | inactive: 0.973 |
| C[C@@H]1CCCCO[C@@H](CN(C)C(=O)Nc2ccc(F)cc2)[C@@H](C)CN([C@H](C)CO)C(=O)c2cc(NC(=O)Nc3ccc4c(c3)OCO4)ccc2O1 | inactive: 1.01 |
| C[C@H](CO)N1C[C@H](C)[C@H](CN(C)S(=O)(=O)c2ccc(C#N)cc2)Oc2ncc(-c3ccccc3)cc2C1=O | inactive: 0.991 |
| COc1ccc(NC(=O)N(C)C[C@@H]2Oc3ccc(NC(=O)CCN4CCOCC4)cc3CC(=O)N([C@H](C)CO)C[C@H]2C)cc1 | inactive: 1.02 |
| C[C@@H]1CN([C@@H](C)CO)C(=O)c2cccc(NC(=O)c3cnccn3)c2O[C@@H]1CN(C)C(=O)NC1CCCCC1 | inactive: 0.995 |
| C[C@H](CO)N1C[C@H](C)[C@@H](CN(C)C)OCCCC[C@H](C)Oc2ccc(NC(=O)CCCN(C)C)cc2C1=O | inactive: 0.978 |
| C[C@@H]1CN([C@@H](C)CO)C(=O)Cc2cc(NC(=O)CCCN(C)C)ccc2O[C@H]1CN(C)S(=O)(=O)c1cccs1 | inactive: 1.03 |
| C[C@@H]1CN([C@@H](C)CO)C(=O)c2cc(NC(=O)Nc3ccc(F)cc3)ccc2O[C@@H](C)CCCCO[C@H]1CN(C)Cc1ccncc1 | inactive: 1.01 |
